From the RNAGym collection of RNA variant scans (doi:10.1093/nar/gkz1192) come the findings set out here.

First the molecules themselves.
B1: CPEB3 Ribozyme (parent)
chain: UAACAGGGGGCCACAGCAGAAGCGUUCACGUCGCAGCCCCUGUCAGAUUCUGGUGAAUCUGCGAAUUCUGCUGUAUAUCUC

The source gives no read counts; variants with many changes may rest on few reads.

This data set covers variants of B1. As to the kind of experiment: self-cleavage, relative activity (ratio to wild type); higher = more cleavage; in vitro, sequencing. An outline of the steps:
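CPEB3 self-cleaving ribozyme mutant libraries were made by rounds of error-prone PCR, barcoded, and transcribed in vitro with T7 RNA polymerase for 5 hours at 37°C. Cleavage occurred during transcription and a 15 min DNase I step before EDTA stop. RNAs were reverse transcribed with template switching and Illumina-sequenced, with DNA sequencing mapping barcodes to variants. Relative activity is the variant's cleaved/total read fraction divided by wild type's (minimum 5 reads), averaged across three batches.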
For CAACGGGGGGCCACAGCAGAAGCGUUCACGUCGCUGCCCCUGUCAGAUUCUGGUGAAUCUGCGAGCUCUGCUGUAUAUCUC, the self-cleavage came out at 0.28.

For the variant CAACAGGGGGCCGCGGCAGAAGCGUUCACGUCGCAGCCCCUGUCAGAUUCUGGUGGAUCCGCGAAUUCUGCUGUAUAUCCC, the self-cleavage was found to be 0.29.

Regarding CAACUGGGGGCCGCAGCAGAAGCGUUCACGUCGCGGCCCCUGUCAGAUUCCGGUGAAUCUGCGAAUUCUGCUGUAUAUCUC, the self-cleavage turned out to be 0.7.

For CAGCAGGGGGCCACAGCAGAAGCGUUCACGUCGCAGCCCCUGUCGGAUUCUGGUGAAUCUGCGAAUUCUGCUGUAUAUCUC, the self-cleavage was determined as 0.82.

For the variant CAACGGGGGGCCACAGCAGAAGCGUUCACGUCGCAGCCCUUGUCAGAUUCUGGUGAAUCUGCGAAUUCUGCUGUAUAUCUC, the self-cleavage worked out at 0.72.

Consider CAACGGGGGGCCACAGCAGAAGCGUUCACGUCGCAGCCCCUGUCAGAUUCUGGUGGAUCUGCGAAUUCUGCCGUAUAUCUC, for which the self-cleavage was determined as 0.63.

Regarding CAACGGGGAGCCACAGUAGAUGCGUUCACGUCGCAGCCCCUGUCAGAUUCUGGUGAAUCUGCGAAUUCUGCUGUAUAUCUC, the self-cleavage was determined as 0.05.

As for CAGCAGGGGGCCACAGCUGGAGCGUUCACGUCGCAGCCCCUGUCAGAUUCUGGUGAAUCUGCGAAUUCUGCUGUAUAUCUC, the self-cleavage amounted to 0.14.

As for CAACGGGGGGCCACAGCAGAAGCGUUCAGGUCGCAGCCCCAGUCAGAUUCUGGUGAAUCUGCGAAUUCUGCUGUAUAUCUC, the self-cleavage was 0.51.

For CAACUGGGGGCCACAGCAGAAGCGUUCACGUCGCAGCCCCUGUCCGAUUCUGGUGAACCUGCGAAUUCUGCAGUAUAUCUC, the self-cleavage worked out at 0.06.

Regarding CAGCAGGGGGCCACAGCAGAAGCGUUCACGUCGCAGCCCCUGUCAGAUUCUGGUCAAUCUGCGAAUUCUGCUGUAUAUCUC, the self-cleavage stood at 1.01.

With CAGCAGGGGGCCACAGCAGAGGCGUUCUCGUCGCAGCCCCUGUCAGAUUCUGGUGAAUCUGCGAAUUCUGCUGUAUAUCUC, the self-cleavage was found to be 0.62.

For CAACUGGGGGCCACAGCAGAAGCGUUCACGUCGCAGCCCCGGACAGAUUCUGGUGUAUCUGCGAAUUCUGCUGUAUAUCUC, the self-cleavage stood at 0.29.

Consider CAGCAGGGGGCCACAGCAGAAGCGUUCACGCCGCAGCCCCUGUCAGAUUCUGGUGAAUCUGCGAAUUCUGCUGGAUAUCUC, for which the self-cleavage was determined as 1.2.

On to CAACAGGGGGCCGCGGCUGAAGCGUUCACGUCGCAGCCCCUGCCAGAUUCUGGUGAAUCUGUGAACUCUGCUGUAUAUCUC, for which the self-cleavage was 0.05.

Take CAACGGGGGGCCACAGCAGAAGCGUCCAGGUCGCAGCCCCUGUCGGAUUCUGGUGAAUCUGCGAAUUCUGCUGUAUAUCUC: the self-cleavage was determined as 0.09.

Take CAGCAGGGGGCCACAGCAGGAGCGUUCACGUCGCAGCCCCUGCCAGAUACUGGUGAAUCUGCGAAUUCUGCUGUAUAUCUC: the self-cleavage turned out to be 0.08.

As for CAGCAGGGGGCCACAGCAGAAGCGUUCACGCCGCAGCCCCUGUCAGAUUCUGGUGAAUCCGCGAAUUCUGCCGUAAAUCUC, the self-cleavage worked out at 0.56.

Regarding CAGCAGGGGGCCACAGCAGAAGCGUUCACGUCGCAGCCUCUGUCAGAUUCUGGUGAACCUGCGAAUCCUGCUGUAUAUCUC, the self-cleavage came out at 0.1.

For the variant CAGCAGGGGGCCACAGCGGAAGCGUUCACGUCGUAGCCCCUGUCAGAUCCUGGUGAAUCUGCGAAUUCUGCUGUAUAUCUC, the self-cleavage amounted to 0.06.

In the case of CAACGGGGGGCCACAGCAGAAGCGUUCUCGUCGCGGCCCCUGUCAGAUUCUGGUGAAUCUGCGAAUUCUGCUGUAUAUCUC, the self-cleavage came to 1.02.

CAUCAGGGGGCCACAGCAGAAGCGUUCACGUCGCAGCCCUUGUCAGGUUCUGGUGAAUCUGCGAAUUCUGCUGUAUAUCUC: the self-cleavage was found to be 0.52.

Turning to CAACGGGGGGCCACAGCAGAAGCGUCCACGUCGCAGCCCCUGUCAGAUUCCGGUGAAUCUGCGAAUUCUGCUGUAUAUCUC, the self-cleavage turned out to be 0.1.

For CAACUGGGGGCCACAGCAGAAGCGUUCACGUCGCAGCCCCUGUCAGAUUCUGGUGUACCUGCGAAUUCUGCUGCAUAUCUC, the self-cleavage is 0.25.

In the case of CAACAGGGGGCCCCAGCAGAAGCGUUCACGUCGCAGCCCCUGUCAGAUUCUGGUGAAUCUGCGAAUUCUGCUGUUUAUCUC, the self-cleavage amounted to 0.63.

In the case of CAUCAGGGGGCCACUGCAGAAGCGUUCACGUCGCAGCCCCUGUCAGAUUCUGGUGAAUCAGCGAAUUCUGCUGUAUAUCUC, the self-cleavage was 0.18.

On to CAACGGGGGGCCACAGCGGAAGCGUUCACGUCGCAGCCCCUGUCAGAUUCUGGUGAAUCUGCGAAUUCUGCUGUAUAUCUC, for which the self-cleavage was determined as 0.31.

For CAACGGGGGGCCACAGGAGAAGCGUUCACGUCGCAGCCACCGUCAGAUUCUGGUGAAUCUGCGAAUUCCGCUGUAUAUCUC, the self-cleavage was 0.05.

For CAACGGGGGGCCACAGCAGAAGCGUUCACGUCGCAGCCCCUGUCAGAUUCUGUUGAAUCUGCGAAUUCUGCUGUAUAUUUC, the self-cleavage worked out at 0.99.

As to CAUCAGGGGGCCACAGCAGAAGCGUUCACGUCGCAGCCCCCGUCAGAUUCUGGUGAAUCUGCGAAUUCCGCUGUAUAUCUC, the self-cleavage stood at 0.44.

Regarding CAACGGGGGGCCACAGCAGAAGCGCUCACGUCGCAGCCCCUGUCAGAUUCUGGUGAAUCUGCGAAUUCUGCUGUAUAUCUC, the self-cleavage stood at 0.14.

Turning to CAGCAGGGGGCCACAGCGGAAGCGUUCACGUCGCAGCCCCUGCCAGAUUCUGGUGAAUCUGCGAAUUCUGCUGUAUAUCUC, the self-cleavage is 0.58.

As to CAGCAGGGGGCCACAGCAGAAGCGUUCACGUCGCAGCCCCUGUCAGAUUCUGGUGGAUCUGCGAGUUCUGCUGUAUAUCUC, the self-cleavage was 0.32.

As to CAGCAGGGGGCCACAGCAGGAGCGUUCACGUCGCAGCCCCUGCCAGAUUCUGGUGAAUCUGCGAGUUCUGCUGUAUAUCUC, the self-cleavage is 0.04.
